Measurements as given in paper PMC10668032.
This is one part of the list. At the low end of the ranking, values are background and their order means little.

biological target: SIX1-Q177R homeodomain (UniProt Q15475); experiment: universal protein binding microarray; details: Universal all-10-mer PBM (8x60K, AMADID 030236), 300 nM GST-tagged protein, Alexa Fluor 488 anti-GST; buffer, salt, pH and temperature not stated; high values mean tight binding; most listed sequences are background and not binding sites; double strand, one strand shown

Sequence | binding signal [E-score]
AAGTGACG | -0.128
AGACAAGC | -0.163
TCCAATCA | -0.188
AACGCCCC | 0.0426
AGTTCGGA | 0.0146
AGAATGCC | -0.253
TATCGGCA | 0.0996
AAGATAGG | -0.117
GAGGCTAA | -0.152
AGCGTCGA | -0.15
AAGGCGCT | -0.0159
ATTACATG | -0.253
GAGTAGCA | 0.0939
GTTCATTA | 0.0345
CCTTAGTA | 0.114
CGATCCTA | 0.0686
TGTGACAA | 0.0601
GCAAGCCA | -0.0822
CCGAGATA | 0.0859
AGTTGAGA | -0.172
CTACGTAA | -0.167
GAACTTTA | -0.205
CCACAGTC | -0.129
CTTTCCTC | -0.0341
ACAGTACC | -0.0393

Sequence | binding signal [E-score]
ACCTTGCG | 0.0281
ACACTCGT | 0.351
GTACTATA | 0.129
AGACAACA | 0.0988
CCAACACC | 0.47
AGGCATCA | -0.241
ACGAAACG | -0.0859
ATGACCAA | -0.319
CCCGAACG | 0.114
GAACGATC | -0.169
GTCACAAA | 0.125
ATCCGGAA | -0.0907
CTAACAAA | -0.111
CCACACAC | 0.271
ACGCACCC | 0.265
CTATCAGA | -0.0198
AGAAAACA | 0.192
GAGAATCC | -0.185
CCGAGGAG | 0.135
CTATGGTC | -0.193
ACTACATA | -0.0871
AGACGGCA | -0.0354
ACCGAGAA | -0.0339
CATCTTGG | 0.0751
GTTATTAA | -0.15

Sequence | binding signal [E-score]
CCATCGCA | -0.114
GACATCGC | -0.203
GTTTCGTA | -0.116
AATCGTCG | -0.136
ACTATGTA | -0.0297
CGAGTTCC | 0.0437
GACCTCAC | 0.161
AGAGATCG | -0.0739
CGGACTGC | -0.0679
CCCCCGTA | 0.155
CCTGTCCA | -0.165
AGGTAGGG | 0.112
CTATCATC | -0.0362
TCGACCGA | -0.197
ATAGTATC | 0.105
ATAATTAA | -0.143
CTATTAGC | -0.0241
GCATAGAC | -0.0541
CCATTGCC | -0.0763
CCGCTCCG | 0.063
AAGATTTG | -0.228
CTTACGAC | -0.00224
ACTCGGAA | 0.021
GTGCAGCA | 0.0986
ACACCTCA | 0.452

Sequence | binding signal [E-score]
CATGCCCC | -0.116
AAAAAATA | -0.174
AAACCTCA | -0.0721
CATTCTTC | -0.235
AAAGTCAT | -0.244
ATCGATAA | -0.0469
ACACCATC | 0.467
ATGCGCTA | -0.224
CGAACCAC | 0.0111
AGCTAGCG | -0.151
CAGCAACG | -0.22
AAAAGAGC | -0.14
GGATAGCA | -0.0589
ATGATAGG | -0.0953
CTGAAATC | -0.139
GCGTCGAA | -0.0307
AACAACTA | -0.0547
TAGTTGAA | -0.158
AGCTAGAC | -0.322
AAGTCGTC | -0.105
AACTACTG | -0.0839
AAGAGTGG | -0.135
TTATACAA | -0.0458
GGTACCTA | 0.106
AGGGCCTC | -0.156

Sequence | binding signal [E-score]
GAACTTAA | -0.0651
GGTACGGA | 0.0763
AAAAAGTA | -0.151
GGTTGTAA | -0.0448
AGACCCGA | 0.122
CAGGCAGG | 0.186
ATCCCCTA | 0.0216
ATTACCAC | -0.0265
AGAATGAC | 0.00032
GACCTTGC | -0.125
GACAGCGA | -0.2
ATCGTAGG | 0.0661
AGACCACG | -0.326
GACTAGCA | -0.0929
GCGGTGCA | 0.14
AGAACGTG | -0.0396
AGTCGGAA | -0.0412
AGTTGCCA | -0.263
GGAAGTAA | -0.126
AGGTTATG | -0.145
AAGGAGGC | -0.247
GCATCTCC | -0.197
ATCCGCCC | 0.106
ACGTGACT | -6.5e-05
CTATCGCA | -0.0514

Sequence | binding signal [E-score]
ACAGGCTA | -0.092
ATATAGGC | -0.0333
CTACGATC | 0.00133
ACAATAGC | -0.138
GCGTTATA | 0.107
CCTGCTCC | 0.00881
ACATGAGC | -0.276
CCAAAGTA | -0.151
TAACCTCA | -0.11
CGTTTTCC | -0.141
ACTTTAAC | -0.0727
AGTCGGAC | -0.236
CATACTCG | -0.00443
GGCTGGAC | -0.258
ACTGGGTG | 0.319
CACGACCC | 0.32
GCGCTACA | -0.0757
CACATGAA | 0.0146
CATGAATG | -0.0745
AATTCGAA | -0.243
CGAGATCA | 0.0229
AGCAGAGC | -0.317
AACTCCTA | -0.0855
GGACAAAC | -0.0197
AAACATAC | -0.0734

Sequence | binding signal [E-score]
GAAAAGCC | -0.187
CAGCCCAG | 0.0853
ACCACAAG | 0.0322
AACTTCCC | -0.211
AGTAGTTG | -0.0276
ATAAGATC | -0.202
AGTCCGCA | -0.228
CGCTAAAA | -0.0709
AACTTTGT | -0.133
CTCGCCGA | -0.0707
ATCCCTTA | 0.0579
CTATATAC | 0.11
ACCAATTA | 0.122
ACCGGGGC | 0.0343
ATGCCAGG | -0.135
ACCTCCAG | -0.0173
GCTCTCCA | -0.214
CTTCGGTA | -0.0623
ATTGTCCA | -0.0882
GTTTAAGA | -0.0559
GCTGCAAC | 0.094
AAATCCGA | -0.178
CAAAATTG | -0.0384
CGACCAAG | -0.104
ATCACGGA | -0.0136

Sequence | binding signal [E-score]
AGTGCCTA | -0.0789
GTAGCAAA | -0.08
AGTCAATC | -0.126
AGATAACT | -0.0253
ATTCAATG | -0.0935
ATGCAATA | 0.0154
AACACCCC | 0.475
GAGCTCGC | -0.171
CGAACACA | 0.215
GTGGGTGA | -0.00233
ACATAGCA | -0.124
ATACTAAT | 0.036
GCCGAACC | -0.284
ATCACCTC | 0.0216
AAGCTAGC | -0.255
CCCGGGGA | 0.206
CGATAGCG | -0.0241
ATCCCCCG | 0.266
TATTCTAA | 0.213
GCCGTCTA | -0.0126
GGGCACAC | 0.284
ACCCTAGT | 0.269
CAGCTCAG | -0.048
GAGGATCA | 0.126
ACCCGCCG | 0.258

Sequence | binding signal [E-score]
CATGCAGG | -0.0296
CAGTAAGG | -0.052
CGGTATAG | -0.132
ATACCGAA | 0.0841
CGCGATTA | 0.0154
AAGAGGCT | -0.123
TAAAAGTA | -0.179
AACAGGTT | -0.181
TCTATCCA | -0.107
TATCGCAA | 0.0311
ATTAGGGA | -0.18
AAATAGAC | 0.04
TCTTAACA | 0.202
ATCACATC | -0.0874
CAAAGGGG | 0.188
GTATCCAC | 0.287
GTTGAACA | 0.016
AACTCGCT | -0.0561
CTTGGATA | -0.102
AGATTGCT | -0.0116
AAGCCAAA | -0.272
CGCTCTAA | -0.129
GGGCCTTA | -0.119
ACACTAGT | 0.389
CCACGAGG | -0.0701

Sequence | binding signal [E-score]
ACACCCAC | 0.468
AGTAATAT | -0.0125
ATATAGAC | 0.0309
CCTAGCGA | -0.134
ACTTCCAG | -0.113
AAAATCAT | -0.214
CCAGAACG | 0.0814
AACAGCCG | -0.234
ACTACACC | 0.488
GGACCTTA | -0.125
TCGGTAGA | -0.146
CTATTGGA | -0.188
AAAACGGC | -0.0563
AGCTTGTG | -0.159
AACAAGGT | 0.0167
ATCGAGCA | -0.219
AAAGGATA | 0.14
CAAGATGG | 0.0275
GGTGCTCA | 0.25
CGTCCCCC | 0.0269
GGGGCCTA | -0.138
AAGTGAGG | -0.0254
ACGTATCC | 0.124
AAGTTTTA | -0.153
CATGCTTC | -0.283

Sequence | binding signal [E-score]
ATAATACG | 0.0432
ACCGACCC | 0.192
ATATTTTA | -0.144
GCCTTGTA | -0.129
GGCCAAAC | -0.149
CAATTTGA | -0.215
CCCTATTC | 0.0919
GCACATGA | -0.0817
AGCGTATC | 0.0781
TAGAGTCA | 0.196
GAGACTAA | -0.244
GAATTGTC | -0.126
AGATGCTG | -0.128
CGGCCACG | -0.184
CGTCGTAC | 0.0751
TCCGGCCA | -0.127
CAAGAACA | 0.134
ATCGGACC | -0.0911
ATGCCTAG | -0.17
AACGTTCG | -0.275
AAACACAC | 0.344
ACTCGAGG | 0.048
ATCTGGGG | 0.0854
GTAGCCAC | 0.00912
ACACCTAT | 0.448

Sequence | binding signal [E-score]
GCTACCAA | -0.0991
AGTCGTGG | 0.076
CTTCACTA | -0.0348
AAGCTACG | -0.282
AATCCCAC | 0.0307
AACGGGAG | -0.0386
GCCTGCAC | 0.124
CCGAACCC | 0.186
CACCACGC | 0.282
ACTGGGCT | 0.0373
AGGCACAA | -0.021
CATAGCGC | 0.0151
ATTCAGCG | -0.222
AGGATTCC | -0.0501
GGAACCCC | 0.165
CCAAAACA | 0.0576
CAACGTGC | -0.235
TTATTAAA | -0.084
CGCATTTC | -0.154
ACATACAG | 0.00972
ACGGAAGG | -0.0151
GTGTACTA | 0.438
GTCTATGA | -0.154
AATCGTTA | -0.198
ATTGTGCC | -0.0983

Sequence | binding signal [E-score]
AATTAGCT | -0.0897
AGGTACGG | 0.0782
AATATTCA | -0.189
CGTTTACA | 0.154
GCCTTCAA | -0.0709
CCATCAGA | 0.00439
GATGTTCA | -0.176
AGGTGTCA | 0.486
ATTACACG | 0.435
GCGCCCGC | -0.169
CACACGAG | 0.238
ACTAGGCA | -0.0193
AAGACAGG | -0.101
AAATGCCT | 0.0125
GTAGTCTA | -0.0737
GAGTTTGC | -0.17
CAATTTGC | -0.184
CCGGTGAA | -0.122
ACCGCTCG | -0.0234
CCCTGAAC | 0.0787
TACATGGA | 0.0259
CCCGCACG | 0.139
AGGGAAAA | -0.149
GAAGCATA | -0.283
TGAAAAAA | -0.224

Sequence | binding signal [E-score]
ATTGCGTC | 0.0916
CCCACGCC | 0.0432
ACAGCCGT | 0.0707
AAATATTT | -0.346
ACTCCGTA | 0.0053
GCTGCTGA | -0.0346
GCGATATA | -0.166
ACGGTGCT | 0.179
GGTAGGAA | -0.174
TAATAGAA | -0.0487
ACAAAGTC | -0.157
GTAGTGTA | 0.427
AATCTACG | -0.139
ATTACATA | -0.126
CACACGCG | 0.296
AGCGTTCA | -0.263
GCAACTTA | -0.157
CCTAACAG | -0.208
CGGTGGCA | 0.0213
